Results on 111 compounds are retold here after PubChem BioAssay AID1240 (Sanford-Burnham Center for Chemical Genomics, 2008).

Values joined by “and” are separate entries in the source; they are usually repeats but may differ in a detail not shown here. Identical values can stand only once. Out of some 50,000 compounds screened, about 800 (1.6%) showed an effect of 50% or more. This is one part of the list.

The assay deals with Bcl-2-like protein 10 (Homo sapiens) (UniProt Q9HD36). The experiment in a line: TR3 peptide-Bcl-B binding displacers, biochemical primary FP assay, phenotype converters (AID 1240).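 Also: 0% = Bcl-B with tracer peptide and DMSO and 100% = tracer peptide lacking Bcl-B.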 The conditions noted are these: GST-Bcl-B / FITC-TR3 peptide fluorescence polarization; stronger effect = higher value; compound at 3.75 mg/L. (Fluorescence polarisation rises when a labelled molecule tumbles more slowly, as on binding a larger partner.)
Sequence of UniProt Q9HD36 (Q9HD36 whole entry, looked up): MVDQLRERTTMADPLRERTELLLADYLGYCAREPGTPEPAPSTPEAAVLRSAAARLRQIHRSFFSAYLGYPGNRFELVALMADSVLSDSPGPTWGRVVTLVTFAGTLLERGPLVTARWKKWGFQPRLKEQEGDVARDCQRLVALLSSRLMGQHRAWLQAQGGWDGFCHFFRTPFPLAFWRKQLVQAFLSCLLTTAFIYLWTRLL
Turning to `CCC(C(=O)Nc1ccc(Br)cc1)c1ccccc1` (stereo unspecified), the displacement came out at 9.1%.

For the compound `O=C(O)/C(S)=C\c1ccc(Cl)cc1`, the displacement came to 11.1%.

In the case of `Cc1ccc(-c2nc3c(C)cccn3c2NC(=O)c2ccccc2)cc1`, the displacement was found to be 7.3%.

For `CCOc1ccc(C(=O)Nc2ccc(C)cc2[N+](=O)[O-])cc1Cl`, the displacement came to 11.7%.

As to `Cc1c(N2C(=O)CSC2c2ccccc2)c(=O)n(-c2ccccc2)n1C` (stereo unspecified), the displacement is -4.2%.

`COc1cccc(NC(=O)CN(c2ccc(Oc3ccccc3)cc2)S(C)(=O)=O)c1`: the displacement was -10.4%.

Consider `Cc1nnc(N/N=C/c2cccc(F)c2)[nH]c1=O`, for which the displacement amounted to 2.2%.

In the case of `Cc1cc2ncn(/N=C\c3ccccc3)c2cc1C`, the displacement stood at 5.9%.

Turning to `Cc1ccc2nc(-c3ccc(F)cc3)oc(=O)c2c1`, the displacement was -7%.

With `O=C(NCCO)c1ccc(-c2nnc(Nc3ccc(O)cc3)c3ccccc23)cc1`, the displacement came to 0.2%.

With `O=C(Nc1ccc2oc(-c3ccccc3F)nc2c1)c1ccc2c(c1)OCCO2`, the displacement worked out at 17.4%.

For the compound `O=C(Nc1ccc(I)cc1)/C(=C\c1cccc([N+](=O)[O-])c1)NC(=O)c1cccs1`, the displacement was -0.6%.

Take `O=C(CCC1CCCC1)NC1CCCCC1`: the displacement was -0.2%.

`CCOc1ccc2c(C(F)(F)F)cc(=O)oc2c1`: the displacement is -2.4%.

On to `O=C(CSc1ncn[nH]1)Nc1ccc([N+](=O)[O-])cc1`, for which the displacement was -10.6% and -15.7%.

Consider `COC(=O)c1ccc(NC(=O)CCCOc2ccccc2)cc1`, for which the displacement was found to be 4.4%.

Regarding `Cn1c(=O)c2c(ncn2CC(=O)N2CCN(c3ccc([N+](=O)[O-])cc3)CC2)n(C)c1=O`, the displacement was 10.2%.

Turning to `C=COCCNC(=O)C(=O)Nc1ccc(F)cc1`, the displacement turned out to be 5%.

As for `COC(=O)C1=C(C)NC2=C(C(=O)c3ccccc32)C1c1ccc(-c2cc([N+](=O)[O-])ccc2Cl)o1` (stereo unspecified), the displacement is 15.5%.

With `CCN1CCC(=NNS(=O)(=O)c2ccc(Cl)cc2)CC1`, the displacement is -3%.

As for `Clc1ccc(-n2ncnc2-c2cccc(Cl)c2)cc1`, the displacement is -1.9%.

Take `CCOc1ccc(Nc2cc(C)nc(-n3nc(C)cc3C)n2)cc1`: the displacement stood at 18.4%.

In the case of `CCc1ccc(-c2nc3cc(NC(=O)c4ccccc4OC)ccc3o2)cc1`, the displacement came to 8.5%.

As to `COc1ccc(Cl)cc1/C=C1/C(=O)NN(c2cccc(Br)c2)C1=O`, the displacement is -1.3%.

On to `Cc1ccc(NCC(=O)N/N=C\c2ccc(-c3ccc(Cl)cc3)o2)cc1`, for which the displacement came to 2.7%.

As for `COCCCN1C(=O)/C(=C\c2ccc(Cl)c(Cl)c2)C(C(=O)OC)=C1C`, the displacement was determined as 3.9%.

In the case of `CC(C)n1c(=S)[nH]c2c1c(=O)n(C)c(=O)n2C`, the displacement turned out to be 9.9%.

Turning to `COc1ccc(S(=O)(=O)N2CCN(Cc3ccccc3OC)CC2)cc1`, the displacement is -7.2%.

As to `Cc1cccc(NC(=O)CSc2cc(Cl)ccc2Cl)c1`, the displacement is 7.9%.

Take `CN1C(=O)C(=Cc2ccc(-c3ccc(Cl)c(Cl)c3)o2)C(=O)N(C)C1=O`: the displacement was -3.8%.

Turning to `Cc1ccc(C(=O)Nc2nc3ccccc3n2Cc2ccc(Cl)cc2)cc1`, the displacement is 9.9%.

As to `O=C(CSc1nc(O)c(Cc2ccccc2)c(=O)n1-c1ccccc1)N1CCOCC1`, the displacement is -3.4%.

Take `O=C(COc1ccc(Cl)cc1Br)NCc1cccnc1`: the displacement is 0.4%.

Consider `O=C(c1cccnc1)N1CCN(C/C=C/c2ccccc2)CC1`, for which the displacement was determined as 1.4%.

As for `CCOC(=O)COc1ccc(-c2nc3sc(C)c(C)c3c(=O)[nH]2)cc1OCC`, the displacement was 29.1%.

In the case of `O=C(N/N=C/c1cc(Br)c(Br)o1)C(O)(c1ccccc1)c1ccccc1`, the displacement was -10.3%.

Consider `CCOc1ccc(Nc2ncnc3c2oc2ccccc23)cc1`, for which the displacement came to 0.5%.

Consider `COc1ccc(C2SCCN2S(=O)(=O)c2ccc3ccccc3c2)cc1` (stereo unspecified), for which the displacement is -11.2%.

Consider `Cc1ccc(C2(c3ccc(C)cc3)CC2C(=O)Nc2cccnc2)cc1` (stereo unspecified), for which the displacement was determined as 1.2%.

For the compound `O=C(c1cccnc1)N1N=C(c2ccccc2)CC1(O)C(F)(F)C(F)(F)C(F)(F)F` (stereo unspecified), the displacement is -25.9%.

Consider `Cc1cc(C)c(OCCCN2CCOCC2)c(Cl)c1`, for which the displacement came to 4.9%.

`C=CCNC(=O)C1(c2ccccc2)CC1(Cl)Cl` (stereo unspecified): the displacement was -15.5%.

For `O=C1CSC(c2cccc(Cl)c2Cl)N1` (stereo unspecified), the displacement was determined as 1.3%.

Consider `CCOc1ccc(N2C(=O)C=CC2=O)c([N+](=O)[O-])c1`, for which the displacement was determined as 11.7%.

On to `CP(=O)(c1ccc(C(N)=O)cc1)c1ccc(C(N)=O)cc1`, for which the displacement was 0.4%.

In the case of `N#CC1=C(SCC(N)=O)NC(=O)CC1c1cccs1` (stereo unspecified), the displacement amounted to 3.6%.

Consider `Cc1ccc(NC(=O)c2cc3c(C)nn(-c4ccccc4)c3s2)c(C)c1`, for which the displacement came to 12.4%.

Regarding `O=C1N/C(=N\N=C\c2ccccc2)S/C1=C\c1ccccc1`, the displacement is 37.5%.

Regarding `O=C1NC(=O)C(Nc2ccc(Cl)cc2)S1` (stereo unspecified), the displacement was -4.8%.

As to `O=C1NN(c2ccccc2)C(=O)/C1=C\c1cccc([N+](=O)[O-])c1`, the displacement is 32.2%.

With `Cc1ccc(-c2csc(NC(=O)C3CC4CCC3C4)n2)cc1` (stereo unspecified), the displacement was determined as 8.6%.

For `CC1=CC(C)(C)N(C(=O)C(Cc2ccccc2)N2C(=O)c3ccccc3C2=O)c2ccccc21` (stereo unspecified), the displacement is -7.8%.

Regarding `O=S(=O)(NC1CCCCCC1)c1cc(Cl)ccc1Cl`, the displacement came out at 7.3%.

As for `Cc1ccc(C(=O)c2c(C)oc3c2cc(O)c2ccccc23)cc1`, the displacement is 0.5%.

As to `Nc1c([N+](=O)[O-])cc(Cl)c2c1C(=O)c1ccccc1C2=O`, the displacement was -9.1%.

With `CS(=O)(=O)N(CC(=O)Nc1cc(Cl)cc(Cl)c1)c1cccc(Cl)c1`, the displacement is 1.8%.

Turning to `COc1ccc(S(=O)(=O)N(CCc2ccccc2)CC(=O)Nc2ccc(Br)cc2)cc1OC`, the displacement came out at 9.4%.

With `Cc1ccc(-n2cnnn2)cc1-n1cnnn1`, the displacement was -2.1%.

As to `C=CCN1C(=O)NC(=O)/C(=C/C=C/c2ccco2)C1=O`, the displacement is 13.2%.

For the compound `CCOc1cc(-c2ccc(OC)cc2)[o+]c2c1ccc1ccccc12`, the displacement amounted to 6.2%.

On to `O=C(Nc1ccccc1)/C(=C\c1cccs1)NC(=O)c1ccccc1`, for which the displacement amounted to 11.1%.

`CCOC(=O)c1sc(N/N=C/c2ccccc2O)nc1C`: the displacement is -16.4%.

With `Cc1ccc(NC(=O)c2ccccc2N)cc1`, the displacement is -8.4%.

On to `COc1ccc(CN2CCN(Cc3ccc(C)cc3)CC2)c(OC)c1OC`, for which the displacement is 1.8%.

In the case of `CC(=O)Oc1ccc(/C=c2/sc3nc4c(C)c(C)ccc4n3c2=O)cc1`, the displacement was -10.3%.

As to `CCOC(=O)COc1c(Br)cc(/C=C(\C#N)c2nn(CCO)c(N)c2C#N)cc1OCC`, the displacement was -7.5%.

Take `O=C(CN(CCc1ccccc1)S(=O)(=O)c1ccc(Cl)cc1)NCc1ccccn1`: the displacement is -17.4%.

As for `COc1cc(/C=C2/SC(=S)N(CC(=O)O)C2=O)ccc1OCc1ccc(Cl)cc1Cl`, the displacement was found to be 18.5%.

In the case of `Cc1cc([N+](=O)[O-])ccc1NC(=O)C(C)Oc1ccccc1` (stereo unspecified), the displacement was found to be 8%.

With `COC(=O)C1=C(O)/C(=C/c2ccc(N(C)C)cc2)N=C1C`, the displacement is -30%.

Consider `COC(=O)C1=C(C)NC(C)=C(C(=O)OC)C1c1cn(-c2ccccc2)nc1-c1ccc(S(=O)(=O)N2CCOCC2)cc1`, for which the displacement stood at 13.6%.

Turning to `COc1cccc(CNc2ccc3c(c2)CCC3)c1OC`, the displacement stood at 6.4%.

As for `CNC(=O)OC12CC3CC(C)(CC(C)(C3)C1)C2`, the displacement stood at 16.1%.

For `CC1=C(C(=O)OC2CCCC2)C(c2ccc(-c3ccccc3)cc2)C2=C(CCCC2=O)N1` (stereo unspecified), the displacement is -6%.

In the case of `COc1ccccc1N(CC(=O)NCCSCc1ccccc1)S(=O)(=O)c1ccccc1`, the displacement is -7.1%.

In the case of `CCOc1cc(C2CC(=O)NC(C)=C2C(=O)OC)cc(Br)c1OC` (stereo unspecified), the displacement was determined as 10.6%.

On to `Cc1cccc(NC(=O)/C(=C\c2cccs2)NC(=O)c2cccs2)c1`, for which the displacement stood at 12.4%.

As to `C=CCN1C(=O)/C(=C\c2ccc(SC)cc2)C(=O)NC1=S`, the displacement is -4.1%.

For `CCOC(=O)c1ccccc1NC(=O)CC(c1ccccc1)c1ccccc1`, the displacement turned out to be 7.3%.

For `Cc1cc([N+](=O)[O-])ccc1-c1ccc(C(=O)Nc2ccc(O)c(-c3nc4ccccc4o3)c2)o1`, the displacement was 7.1%.

Regarding `COc1cc(C(=O)Nc2nc(C)c(C)s2)cc(OC)c1OC`, the displacement is 8.1%.

In the case of `O=C(CN1C(=O)/C(=C/c2ccccc2Cl)SC1=S)NCCc1ccccc1`, the displacement came out at 5.3%.

On to `O=c1[nH]c(=O)n(-c2cccc3ccccc23)c(O)c1/C=C1\C=Nc2ccccc21`, for which the displacement was -11.6%.

For `Cc1ccc2c(c1)c(-c1ccccc1)c(-c1ccccc1)n2CC(O)CN1C(=O)CSC1=O` (stereo unspecified), the displacement is 11.4%.

Regarding `Cc1ccc(C2/C(=C(\O)c3ccccc3)C(=O)C(=O)N2Cc2cccnc2)cc1` (stereo unspecified), the displacement is -8.8%.

On to `C/C(=N\OCC(=O)N/N=C/c1cc(Cl)cc(Cl)c1O)c1cccs1`, for which the displacement was 11.1%.

In the case of `CCC(=O)N1c2ccccc2NC2=C(C(=O)CC(C)(C)C2)C1c1ccccn1` (stereo unspecified), the displacement is -11.6%.

As for `Cc1onc(-c2ccccc2)c1C(=O)NCC(C)C`, the displacement is -7.2%.

Take `COC(=O)C1=C(C)N(C)C(C)=C(C(=O)OC)C1c1cccc(C(F)(F)F)c1`: the displacement is -15.8%.

Turning to `CCc1ccc(/C=C2/SC(=S)N(CC(=O)O)C2=O)cc1`, the displacement is 2.5%.

Regarding `Cc1ccc(NC(=O)CSc2cc(Cl)ccc2Cl)cc1`, the displacement amounted to 19.4%.

Consider `Cc1nc2ccccn2c1C(=O)N/N=C/c1ccccc1`, for which the displacement was -0.3%.

As to `Cc1ccc(/C=C2/SC(=S)N(CCC(=O)O)C2=O)o1`, the displacement was -27.7%.

As for `Cc1cc2c(cc1C)C(=O)NC(C)(C)C2`, the displacement was determined as 8.6%.

Regarding `Cc1ccc(S(=O)(=O)NC(C)(C)CN2CCOCC2)cc1`, the displacement is -1.9%.

On to `CCN(CC)c1ccc(N2C(=O)/C(=C\c3ccco3)SC2=S)cc1`, for which the displacement is 8.6%.

As for `Cc1ccccc1C(=O)Nc1ccc(Oc2ccc(NC(=O)c3ccccc3C)cc2)cc1`, the displacement is 4.5%.

As for `Cc1ccc(Nc2nc3nonc3nc2NNc2ccccc2)cc1Cl`, the displacement was -11.9%.

Take `c1ccc(C2=NNC3(CCCCCCC3)S2)cc1`: the displacement is -10.3%.

Regarding `Clc1ccc(C2=NN(c3ccccc3)CC2)cc1`, the displacement is -3.3%.

As for `COc1ccccc1NC(=O)CN(c1ccccc1C)S(C)(=O)=O`, the displacement is -4.1%.

For the compound `CC1CCc2c(sc(NC(=O)c3cc([N+](=O)[O-])ccc3Cl)c2C(N)=O)C1` (stereo unspecified), the displacement was determined as 27.3%.

As to `CSc1ccccc1NC(=O)CSc1nc2ccccc2[nH]1`, the displacement was 3.8%.

For `N/C(Cc1ccc([N+](=O)[O-])cc1)=N\OC(=O)c1ccccc1Br`, the displacement worked out at 5.5%.

Consider `O=C1c2ccccc2CCC1C1(O)C(=O)Nc2ccc(Br)cc21` (stereo unspecified), for which the displacement was -10.2%.

Turning to `CC1CCC/C(=N\NC(=O)Nc2ccccc2)C1` (stereo unspecified), the displacement is 26.8%.

Consider `O=C(CSc1ccccc1C(=O)O)c1ccc(F)cc1`, for which the displacement is -3.2%.

As for `CC(=O)n1cc(Nc2cccc([N+](=O)[O-])c2)c2ccccc21`, the displacement is -5.5%.

With `O=S(=O)(c1ccc(Cl)cc1)n1cccc1`, the displacement was found to be 6.8%.

Regarding `COc1ccc(-c2cc3cc(OC)c(OC)cc3c(-c3ccccc3Cl)n2)cc1OC`, the displacement was 1.2%.

Consider `O=C(CSc1nc2ccc([N+](=O)[O-])cc2s1)Nc1ccc2ccccc2c1`, for which the displacement amounted to 2.2%.
